B1: GAGCGAG (DNA:RNA)
RNA: GGGAGACCGGAAUUCAGAUUGUCCGAGCGAGUUAAAUCCCGUCGUAGCCACCA
DNA 1: CAATCTGAATTCCGGTCTCCC
DNA 2: TGGTGGCTACGACGGGATT
B2: GUGCGAU (DNA:RNA)
RNA: B1 RNA with A26U, G31U
DNA 1: CAATCTGAATTCCGGTCTCCC
DNA 2: TGGTGGCTACGACGGGATT
B3: GUUUGUA (DNA:RNA)
RNA: B1 RNA with A26U, G27U, C28U, A30U, G31A
DNA 1: CAATCTGAATTCCGGTCTCCC
DNA 2: TGGTGGCTACGACGGGATT
B4: AACGGGC (DNA:RNA)
RNA: B1 RNA with G25A, G27C, C28G, A30G, G31C
DNA 1: CAATCTGAATTCCGGTCTCCC
DNA 2: TGGTGGCTACGACGGGATT
B5: UAAAAAA (DNA:RNA)
RNA: B1 RNA with G25U, G27A, C28A, G29A, G31A
DNA 1: CAATCTGAATTCCGGTCTCCC
DNA 2: TGGTGGCTACGACGGGATT
B6: GAUCUAC (DNA:RNA)
RNA: B1 RNA with G27U, G29U, G31C
DNA 1: CAATCTGAATTCCGGTCTCCC
DNA 2: TGGTGGCTACGACGGGATT
B7: CUCCUGC (DNA:RNA)
RNA: B1 RNA with G25C, A26U, G27C, G29U, A30G, G31C
DNA 1: CAATCTGAATTCCGGTCTCCC
DNA 2: TGGTGGCTACGACGGGATT
B8: UAACGUA (DNA:RNA)
RNA: B1 RNA with G25U, G27A, A30U, G31A
DNA 1: CAATCTGAATTCCGGTCTCCC
DNA 2: TGGTGGCTACGACGGGATT
B9: AUCUAUU (DNA:RNA)
RNA: GGGAGACCGGAAUUCAGAUUGUCCAUCUAUUUUAAAUCCCGUCGUAGCCACCA
DNA 1: CAATCTGAATTCCGGTCTCCC
DNA 2: TGGTGGCTACGACGGGATT
B10: UUGGGUU (DNA:RNA)
RNA: B9 RNA with A25U, C27G, U28G, A29G
DNA 1: CAATCTGAATTCCGGTCTCCC
DNA 2: TGGTGGCTACGACGGGATT
B11: AUCUCAG (DNA:RNA)
RNA: B9 RNA with A29C, U30A, U31G
DNA 1: CAATCTGAATTCCGGTCTCCC
DNA 2: TGGTGGCTACGACGGGATT
B12: ACGCUGG (DNA:RNA)
RNA: B1 RNA with G25A, A26C, G29U, A30G
DNA 1: CAATCTGAATTCCGGTCTCCC
DNA 2: TGGTGGCTACGACGGGATT
B13: UGUAAUA (DNA:RNA)
RNA: B9 RNA with A25U, U26G, C27U, U28A, U31A
DNA 1: CAATCTGAATTCCGGTCTCCC
DNA 2: TGGTGGCTACGACGGGATT
B14: ACAUAAA (DNA:RNA)
RNA: B9 RNA with U26C, C27A, U30A, U31A
DNA 1: CAATCTGAATTCCGGTCTCCC
DNA 2: TGGTGGCTACGACGGGATT
B15: AGUGACG (DNA:RNA)
RNA: B9 RNA with U26G, C27U, U28G, U30C, U31G
DNA 1: CAATCTGAATTCCGGTCTCCC
DNA 2: TGGTGGCTACGACGGGATT
B16: UCUCAGA (DNA:RNA)
RNA: B9 RNA with A25U, U26C, C27U, U28C, U30G, U31A
DNA 1: CAATCTGAATTCCGGTCTCCC
DNA 2: TGGTGGCTACGACGGGATT
B17: GCUCGAU (DNA:RNA)
RNA: B1 RNA with A26C, G27U, G31U
DNA 1: CAATCTGAATTCCGGTCTCCC
DNA 2: TGGTGGCTACGACGGGATT
B18: GGCUAAC (DNA:RNA)
RNA: B9 RNA with A25G, U26G, U30A, U31C
DNA 1: CAATCTGAATTCCGGTCTCCC
DNA 2: TGGTGGCTACGACGGGATT
B19: UACGGCA (DNA:RNA)
RNA: B1 RNA with G25U, G27C, C28G, A30C, G31A
DNA 1: CAATCTGAATTCCGGTCTCCC
DNA 2: TGGTGGCTACGACGGGATT
B20: CAGAGAU (DNA:RNA)
RNA: B1 RNA with G25C, C28A, G31U
DNA 1: CAATCTGAATTCCGGTCTCCC
DNA 2: TGGTGGCTACGACGGGATT

Changes are numbered by the printed parent chain; changes in the protein carry UniProt numbers. The list shows a part of the results.

The assay deals with T1, RBFOX1 RRM (Homo sapiens, UniProt Q9NWB1 109-208).
T1 sequence: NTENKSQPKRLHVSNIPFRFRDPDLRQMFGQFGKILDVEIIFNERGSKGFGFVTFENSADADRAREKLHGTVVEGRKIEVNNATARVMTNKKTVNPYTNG
The experiment in a line: EMSA; HiTS-Eq, 1 nM pool, 10 min; buffer printed only for the single-RNA assays: 10 mM Tris pH 7.5, 150 mM NaCl, 3.4 mM EDTA, 0.001% NP-40, 30 C. The note with it: tags: His6 N-terminal (pET28a); label: 5' 32P. A digest of the protocol:
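A pool of RNA with 7 randomized nucleotides, 5′-radiolabelled and with DNA-annealed flanks, was equilibrated at 1 nM for 10 min in 50 µL with purified RbFox RRM, wild type or mutant, across increasing protein concentrations. Free RNA was separated by 8% native PAGE, excised, reverse-transcribed, barcoded by PCR and sequenced. Relative association constants were obtained from read-count changes of each RNA species versus the control reaction and normalised to the cognate motif.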
(In general: Mobility shift assays separate free from complexed probe on a gel.)
With B1, the binding signal was 0.0115 KA relative to UGCAUGU.

As for B2, the binding signal is 0.0159 KA relative to UGCAUGU.

On to B3, for which the binding signal is 0.0113 KA relative to UGCAUGU.

B4: the binding signal is 0.0153 KA relative to UGCAUGU.

Regarding B5, the binding signal is 0.000646 KA relative to UGCAUGU.

As to B6, the binding signal is 0.00647 KA relative to UGCAUGU.

For the molecule B7, the binding signal is 0.0112 KA relative to UGCAUGU.

Consider B8, for which the binding signal was 0.00685 KA relative to UGCAUGU.

B9: the binding signal is 0.00191 KA relative to UGCAUGU.

With B10, the binding signal was 0.0251 KA relative to UGCAUGU.

Consider B11, for which the binding signal is 0.00642 KA relative to UGCAUGU.

In the case of B12, the binding signal was 0.0175 KA relative to UGCAUGU.

As to B13, the binding signal was 0.0113 KA relative to UGCAUGU.

Turning to B14, the binding signal is 0.000598 KA relative to UGCAUGU.

For B15, the binding signal was 0.00834 KA relative to UGCAUGU.

For the molecule B16, the binding signal is 0.0123 KA relative to UGCAUGU.

As to B17, the binding signal was 0.0216 KA relative to UGCAUGU.

As for B18, the binding signal was 0.00732 KA relative to UGCAUGU.

B19: the binding signal was 0.0139 KA relative to UGCAUGU.

Regarding B20, the binding signal is 0.00605 KA relative to UGCAUGU.

Source of the values: paper PMC9911399, “Two distinct binding modes provide the RNA-binding protein RbFox with extraordinary sequence specificity”.
